This passage reports binding signal results from article PMC12820563, “FoxP3 forms a head-to-head dimer in vivo and stabilizes its multimerization on adjacent microsatellites”.

The list shows a part of the results.

The target in the assay is T1, MBP-FoxP1dN (Mus musculus, UniProt P58462 326-579).
T1 sequence: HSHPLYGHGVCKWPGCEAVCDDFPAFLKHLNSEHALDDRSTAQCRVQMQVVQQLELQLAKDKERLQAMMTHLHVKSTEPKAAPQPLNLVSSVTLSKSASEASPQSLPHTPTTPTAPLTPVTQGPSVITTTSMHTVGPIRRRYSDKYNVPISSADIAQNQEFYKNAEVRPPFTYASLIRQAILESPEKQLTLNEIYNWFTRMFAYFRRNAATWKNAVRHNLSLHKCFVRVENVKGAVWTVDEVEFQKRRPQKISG
The assay is described as follows: PD-seq (MBP pull-down with sequencing); 20 mM Tris-HCl pH 7.5, 100 mM NaCl, 1.5 mM MgCl2, 0.4 uM protein, 0.1 uM dsDNA library, 30 min, room temperature, amylose pull-down; high values mean tight binding. The following applies: protein: recombinant; tags: His6-MBP; chain copies: 2; dsDNA, one strand shown. The essentials: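 Amylose resin was used to capture complexes formed during 30 min at room temperature in Tris pH 7.5 buffer with NaCl and MgCl2 between 0.4 µM His6-MBP-tagged mouse FoxP3 or FoxP1 fragment lacking the N-terminus, expressed in E. coli, and 0.1 µM Klenow-filled double-stranded degenerate DNA library. After three washes, the DNA was released with proteinase K, barcoded by PCR and sequenced on Illumina. Binding is pooled-replicate reads-per-million enrichment, pull-down over input.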
For the sequence “GATGATTGTTCTCCCAGCTGATGAATTCGAGGCCTCGAGTAAACAAATTTTCCTAATCTTTCTGTTCAAGCGCCATCTAC”, the binding signal is 0.796 RPM ratio (pull-down/input). Turning to “GATGATTGTTCTCCCAGCTGATGAATTAGAGAGATCGAGTAAACAAATTTTCCTAATCTTTCTGTTCAAGCGCCATCTAC”, the binding signal is 0.86 RPM ratio (pull-down/input).

As for “GATGATTGTTCTCCCAGCTGATGAATTACTAGCTTCGAGTAAACAAATTTTCCTAATCTTTCTGTTCAAGCGCCATCTAC”, the binding signal was 1.06 RPM ratio (pull-down/input). In the case of “GATGATTGTTCTCCCAGCTGATGAATTGTGTAAGTCGAGTAAACAAATTTTCCTAATCTTTCTGTTCAAGCGCCATCTAC”, the binding signal is 1.11 RPM ratio (pull-down/input). For “GATGATTGTTCTCCCAGCTGATGAATTACTTGGTTCGAGTAAACAAATTTTCCTAATCTTTCTGTTCAAGCGCCATCTAC” the value was 0.959 RPM ratio (pull-down/input). To “GATGATTGTTCTCCCAGCTGATGAATTTGATGTATCGAGTAAACAAATTTTCCTAATCTTTCTGTTCAAGCGCCATCTAC” belongs 1.25 RPM ratio (pull-down/input); to “GATGATTGTTCTCCCAGCTGATGAATTGGGGATATCGAGTAAACAAATTTTCCTAATCTTTCTGTTCAAGCGCCATCTAC”, 0.891 RPM ratio (pull-down/input); to “GATGATTGTTCTCCCAGCTGATGAATTTGGTTTCTCGAGTAAACAAATTTTCCTAATCTTTCTGTTCAAGCGCCATCTAC”, 0.962 RPM ratio (pull-down/input). To “GATGATTGTTCTCCCAGCTGATGAATTAGATAGGTCGAGTAAACAAATTTTCCTAATCTTTCTGTTCAAGCGCCATCTAC” belongs 0.863 RPM ratio (pull-down/input); to “GATGATTGTTCTCCCAGCTGATGAATTTACTGATTCGAGTAAACAAATTTTCCTAATCTTTCTGTTCAAGCGCCATCTAC”, 1.32 RPM ratio (pull-down/input). Turning to “GATGATTGTTCTCCCAGCTGATGAATTGGTACCCTCGAGTAAACAAATTTTCCTAATCTTTCTGTTCAAGCGCCATCTAC”, the binding signal is 0.916 RPM ratio (pull-down/input). For “GATGATTGTTCTCCCAGCTGATGAATTCCACGCCTCGAGTAAACAAATTTTCCTAATCTTTCTGTTCAAGCGCCATCTAC” the value was 0.806 RPM ratio (pull-down/input); for “GATGATTGTTCTCCCAGCTGATGAATTGGCCCCCTCGAGTAAACAAATTTTCCTAATCTTTCTGTTCAAGCGCCATCTAC”, 0.75 RPM ratio (pull-down/input). For “GATGATTGTTCTCCCAGCTGATGAATTCGAGGCTTCGAGTAAACAAATTTTCCTAATCTTTCTGTTCAAGCGCCATCTAC” the value was 0.819 RPM ratio (pull-down/input). To “GATGATTGTTCTCCCAGCTGATGAATTACAACAATCGAGTAAACAAATTTTCCTAATCTTTCTGTTCAAGCGCCATCTAC” belongs 2.1 RPM ratio (pull-down/input); to “GATGATTGTTCTCCCAGCTGATGAATTAGTACCTTCGAGTAAACAAATTTTCCTAATCTTTCTGTTCAAGCGCCATCTAC”, 0.945 RPM ratio (pull-down/input); to “GATGATTGTTCTCCCAGCTGATGAATTACTCTGCTCGAGTAAACAAATTTTCCTAATCTTTCTGTTCAAGCGCCATCTAC”, 0.985 RPM ratio (pull-down/input).

For the sequence “GATGATTGTTCTCCCAGCTGATGAATTTCGTGCATCGAGTAAACAAATTTTCCTAATCTTTCTGTTCAAGCGCCATCTAC”, the binding signal is 1.21 RPM ratio (pull-down/input). For “GATGATTGTTCTCCCAGCTGATGAATTGGGCGTATCGAGTAAACAAATTTTCCTAATCTTTCTGTTCAAGCGCCATCTAC” the value was 0.943 RPM ratio (pull-down/input); for “GATGATTGTTCTCCCAGCTGATGAATTCATTCCATCGAGTAAACAAATTTTCCTAATCTTTCTGTTCAAGCGCCATCTAC”, 0.916 RPM ratio (pull-down/input). Turning to “GATGATTGTTCTCCCAGCTGATGAATTAATGCTCTCGAGTAAACAAATTTTCCTAATCTTTCTGTTCAAGCGCCATCTAC”, the binding signal is 1.11 RPM ratio (pull-down/input). To “GATGATTGTTCTCCCAGCTGATGAATTAGCCGGTTCGAGTAAACAAATTTTCCTAATCTTTCTGTTCAAGCGCCATCTAC” belongs 0.878 RPM ratio (pull-down/input); to “GATGATTGTTCTCCCAGCTGATGAATTACAGTGTTCGAGTAAACAAATTTTCCTAATCTTTCTGTTCAAGCGCCATCTAC”, 1.16 RPM ratio (pull-down/input); to “GATGATTGTTCTCCCAGCTGATGAATTTGAATGATCGAGTAAACAAATTTTCCTAATCTTTCTGTTCAAGCGCCATCTAC”, 0.9 RPM ratio (pull-down/input).

Consider “GATGATTGTTCTCCCAGCTGATGAATTGCGTTCCTCGAGTAAACAAATTTTCCTAATCTTTCTGTTCAAGCGCCATCTAC”, for which the binding signal is 1.03 RPM ratio (pull-down/input). To “GATGATTGTTCTCCCAGCTGATGAATTAACACCCTCGAGTAAACAAATTTTCCTAATCTTTCTGTTCAAGCGCCATCTAC” belongs 0.976 RPM ratio (pull-down/input); to “GATGATTGTTCTCCCAGCTGATGAATTCATTTGGTCGAGTAAACAAATTTTCCTAATCTTTCTGTTCAAGCGCCATCTAC”, 0.932 RPM ratio (pull-down/input); to “GATGATTGTTCTCCCAGCTGATGAATTCGGCTCGTCGAGTAAACAAATTTTCCTAATCTTTCTGTTCAAGCGCCATCTAC”, 0.787 RPM ratio (pull-down/input). Regarding “GATGATTGTTCTCCCAGCTGATGAATTTACATGCTCGAGTAAACAAATTTTCCTAATCTTTCTGTTCAAGCGCCATCTAC”, the binding signal is 1.41 RPM ratio (pull-down/input). To “GATGATTGTTCTCCCAGCTGATGAATTGACTGTCTCGAGTAAACAAATTTTCCTAATCTTTCTGTTCAAGCGCCATCTAC” belongs 0.876 RPM ratio (pull-down/input); to “GATGATTGTTCTCCCAGCTGATGAATTGGCTACTTCGAGTAAACAAATTTTCCTAATCTTTCTGTTCAAGCGCCATCTAC”, 0.866 RPM ratio (pull-down/input).
